Measurements reported in the supplement of paper PMC8728848.
This is one part of the list.

Legend:
Test in all cases: glycan array binding signal (z-score within array); higher = stronger binding
Conditions in all cases: glycan notation: IUPAC condensed, linker removed
[1] = molecular target: Neu5Ac(a2-3)Gal(b1-3)[Neu5Ac(a2-3)Gal(b1-4)]GlcNAc
Outline: (§1)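 The binding signal is a Z-score computed within each array and averaged over linkers. Arrays of the same protein sequence at different concentrations or buffers were also averaged together. Data originate from 3228 arrays in the Consortium for Functional Glycomics database, kept only where the protein sequence was available.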

[2] = molecular target: Neu5Ac(a2-3)Gal(b1-3)[Neu5Ac(a2-6)]GalNAc
Outline: as §1

[3] = molecular target: Neu5Ac(a2-3)Gal(b1-3)[Neu5Ac(a2-6)]GlcNAc(b1-3)[Fuc(a1-3)[Gal(b1-4)]GlcNAc(b1-6)]Gal(b1-4)Glc
Outline: as §1

[4] = molecular target: Neu5Ac(a2-3)Gal(b1-3)]Neu5Ac(a2-3)Gal(b1-4)]GlcNAc
Outline: as §1

Neu5Ac(a2-3)Gal(b1-4)Glc = molecular target: Neu5Ac(a2-3)Gal(b1-4)Glc
Outline: as §1

[5] = molecular target: Neu5Ac(a2-3)Gal(b1-4)GlcNAc
Outline: as §1

[6] = molecular target: Neu5Ac(a2-3)Gal(b1-4)GlcNAc(b1-2)Man
Outline: as §1

[7] = molecular target: Neu5Ac(a2-3)Gal(b1-4)GlcNAc(b1-2)Man(a1-3)[GlcNAc(b1-2)Man(b1-4)GlcNAc(b1-2)Man(a1-6)]Man(b1-4)GlcNAc(b1-4)GlcNAc
Outline: as §1

[8] = molecular target: Neu5Ac(a2-3)Gal(b1-4)GlcNAc(b1-2)Man(a1-3)[GlcNAc(b1-4)][Neu5Ac(a2-3)Gal(b1-4)GlcNAc(b1-2)Man(a1-6)]Man(b1-4)GlcNAc(b1-4)GlcNAc
Outline: as §1

[9] = molecular target: Neu5Ac(a2-3)Gal(b1-4)GlcNAc(b1-2)Man(a1-3)[Neu5Ac(a2-3)Gal(b1-4)GlcNAc(b1-2)Man(a1-6)]Man(b1-4)GlcNAc(b1-4)GlcNAc
Outline: as §1

[10] = molecular target: Neu5Ac(a2-3)Gal(b1-4)GlcNAc(b1-2)Man(a1-3)[Neu5Ac(a2-3)Gal(b1-4)GlcNAc(b1-2)Man(a1-6)]Man(b1-4)GlcNAc(b1-4)[Fuc(a1-6)]GlcNAc
Outline: as §1

[11] = molecular target: Neu5Ac(a2-3)Gal(b1-4)GlcNAc(b1-2)Man(a1-3)[Neu5Ac(a2-6)Gal(b1-4)GlcNAc(b1-2)Man(a1-6)]Man(b1-4)GlcNAc(b1-4)GlcNAc
Outline: as §1

[12] = molecular target: Neu5Ac(a2-3)Gal(b1-4)GlcNAc(b1-2)[Neu5Ac(a2-3)Gal(b1-4)GlcNAc(b1-4)]Man(a1-3)[GlcNAc(b1-4)][Neu5Ac(a2-3)Gal(b1-4)GlcNAc(b1-2)[Neu5Ac(a2-3)Gal(b1-4)GlcNAc(b1-6)]Man(a1-6)]Man(b1-4)GlcNAc(b1-4)GlcNAc
Outline: as §1

[13] = molecular target: Neu5Ac(a2-3)Gal(b1-4)GlcNAc(b1-2)[Neu5Ac(a2-3)Gal(b1-4)GlcNAc(b1-4)]Man(a1-3)[GlcNAc(b1-4)][Neu5Ac(a2-3)Gal(b1-4)GlcNAc(b1-4)Man(a1-6)]Man(b1-4)GlcNAc(b1-4)GlcNAc
Outline: as §1

[14] = molecular target: Neu5Ac(a2-3)Gal(b1-4)GlcNAc(b1-2)[Neu5Ac(a2-3)Gal(b1-4)GlcNAc(b1-6)]Man(a1-6)[Neu5Ac(a2-3)Gal(b1-4)GlcNAc(b1-2)Man(a1-3)]Man(b1-4)GlcNAc(b1-4)GlcNAc
Outline: as §1

[15] = molecular target: Neu5Ac(a2-3)Gal(b1-4)GlcNAc(b1-2)[Neu5Ac(a2-3)Gal(b1-4)GlcNAc(b1-6)]Man(a1-6)[Neu5Ac(a2-3)Gal(b1-4)GlcNAc(b1-2)Man(a1-3)][GlcNAc(b1-4)]Man(b1-4)GlcNAc(b1-4)GlcNAc
Outline: as §1

[16] = molecular target: Neu5Ac(a2-3)Gal(b1-4)GlcNAc(b1-3)Gal
Outline: as §1

[17] = molecular target: Neu5Ac(a2-3)Gal(b1-4)GlcNAc(b1-3)Gal(b1-3)GlcNAc
Outline: as §1

[18] = molecular target: Neu5Ac(a2-3)Gal(b1-4)GlcNAc(b1-3)Gal(b1-4)GlcNAc
Outline: as §1

[19] = molecular target: Neu5Ac(a2-3)Gal(b1-4)GlcNAc(b1-3)Gal(b1-4)GlcNAc(b1-2)Man(a1-3)[Neu5Ac(a2-3)Gal(b1-4)GlcNAc(b1-3)Gal(b1-4)GlcNAc(b1-2)Man(a1-6)]Man(b1-4)GlcNAc(b1-4)GlcNAc
Outline: as §1

[20] = molecular target: Neu5Ac(a2-3)Gal(b1-4)GlcNAc(b1-3)Gal(b1-4)GlcNAc(b1-3)Gal(b1-4)GlcNAc
Outline: as §1

[21] = molecular target: Neu5Ac(a2-3)Gal(b1-4)GlcNAc(b1-3)Gal(b1-4)GlcNAc(b1-3)Gal(b1-4)GlcNAc(b1-2)Man(a1-3)[Neu5Ac(a2-3)Gal(b1-4)GlcNAc(b1-3)Gal(b1-4)GlcNAc(b1-3)Gal(b1-4)GlcNAc(b1-2)Man(a1-6)]GalNAc
Outline: as §1

[22] = molecular target: Neu5Ac(a2-3)Gal(b1-4)GlcNAc(b1-3)Gal(b1-4)GlcNAc(b1-3)GalNAc
Outline: as §1

[23] = molecular target: Neu5Ac(a2-3)Gal(b1-4)GlcNAc(b1-3)Gal(b1-4)GlcNAc(b1-3)[Neu5Ac(a2-3)Gal(b1-4)GlcNAc(b1-3)Gal(b1-4)GlcNAc(b1-6)]GalNAc
Outline: as §1

[24] = molecular target: Neu5Ac(a2-3)Gal(b1-4)GlcNAc(b1-3)Gal(b1-4)GlcNAc(b1-6)[Gal(b1-3)]GalNAc
Outline: as §1

[25] = molecular target: Neu5Ac(a2-3)Gal(b1-4)GlcNAc(b1-3)Gal(b1-4)[Fuc(a1-3)]GlcNAc
Outline: as §1

[26] = molecular target: Neu5Ac(a2-3)Gal(b1-4)GlcNAc(b1-3)GalNAc
Outline: as §1

[27] = molecular target: Neu5Ac(a2-3)Gal(b1-4)GlcNAc(b1-3)[Neu5Ac(a2-3)Gal(b1-4)GlcNAc(b1-6)]GalNAc
Outline: as §1

[28] = molecular target: Neu5Ac(a2-3)Gal(b1-4)GlcNAc(b1-6)GalNAc
Outline: as §1

[29] = molecular target: Neu5Ac(a2-3)Gal(b1-4)GlcNAc(b1-6)[Gal(b1-3)]GalNAc
Outline: as §1

[30] = molecular target: Neu5Ac(a2-3)Gal(b1-4)GlcNAc(b1-6)[Neu5Ac(a2-3)Gal(b1-3)]GalNAc
Outline: as §1

[31] = molecular target: Neu5Ac(a2-3)Gal(b1-4)GlcNAc6S
Outline: as §1

[32] = molecular target: Neu5Ac(a2-3)Gal(b1-4)[Fuc(a1-3)]GlcNAc
Outline: as §1

[33] = molecular target: Neu5Ac(a2-3)Gal(b1-4)[Fuc(a1-3)]GlcNAc(b1-2)Man
Outline: as §1

[34] = molecular target: Neu5Ac(a2-3)Gal(b1-4)[Fuc(a1-3)]GlcNAc(b1-3)Gal
Outline: as §1

[35] = molecular target: Neu5Ac(a2-3)Gal(b1-4)[Fuc(a1-3)]GlcNAc(b1-3)Gal(b1-4)GlcNAc
Outline: as §1

[36] = molecular target: Neu5Ac(a2-3)Gal(b1-4)[Fuc(a1-3)]GlcNAc(b1-3)Gal(b1-4)[Fuc(a1-3)]GlcNAc(b1-3)Gal(b1-4)[Fuc(a1-3)]GlcNAc
Outline: as §1

[37] = molecular target: Neu5Ac(a2-3)Gal(b1-4)[Fuc(a1-3)]GlcNAc(b1-3)GalNAc
Outline: as §1

B1: MAL-II (Maackia amurensis), P93248 (protein)
chain: ATSNSKPTQVLLATFLTFFFLLLNNVNSSDELSFTINNFVPNEADLLFQGEASVSSTGVLQLTRVENGQPQQYSVGRALYAAPVRIWDNTTGSVASFSTSFTFVVKAPNPTITSDGLAFFLAPPDSQIPSGRVSKYLGLFNNSNSDSSNQIVAVEFDTYFGHSYDPWDPNYRHIGIDVNGIESIKTVQWDWINGGVAFATITYLAPNKTLIASLVYPSNQTSFIVAASVDLKEILPEWVRVGFSAATGYPTQVETHDVLSWSFTSTLEANSDAATENNVHIARYTA
- glycan array binding signal (z-score) [1]: -0.241
- glycan array binding signal (z-score) [2]: 7.48
- glycan array binding signal (z-score) [3]: -0.18
- glycan array binding signal (z-score) [4]: -0.202
- glycan array binding signal (z-score) (Neu5Ac(a2-3)Gal(b1-4)Glc): -0.167
- glycan array binding signal (z-score) [5]: -0.137
- glycan array binding signal (z-score) [6]: -0.06
- glycan array binding signal (z-score) [7]: -0.099
- glycan array binding signal (z-score) [8]: -0.389
- glycan array binding signal (z-score) [9]: -0.229
- glycan array binding signal (z-score) [10]: -0.268
- glycan array binding signal (z-score) [11]: -0.24
- glycan array binding signal (z-score) [12]: -0.279
- glycan array binding signal (z-score) [13]: -0.282
- glycan array binding signal (z-score) [14]: -0.087
- glycan array binding signal (z-score) [15]: -0.334
- glycan array binding signal (z-score) [16]: -0.196
- glycan array binding signal (z-score) [17]: -0.166
- glycan array binding signal (z-score) [18]: -0.096
- glycan array binding signal (z-score) [19]: 0.685
- glycan array binding signal (z-score) [20]: 0.001
- glycan array binding signal (z-score) [21]: 0.4
- glycan array binding signal (z-score) [22]: -0.108
- glycan array binding signal (z-score) [23]: -0.118
- glycan array binding signal (z-score) [24]: 0.212
- glycan array binding signal (z-score) [25]: -0.221
- glycan array binding signal (z-score) [26]: -0.131
- glycan array binding signal (z-score) [27]: -0.187
- glycan array binding signal (z-score) [28]: -0.212
- glycan array binding signal (z-score) [29]: -0.208
- glycan array binding signal (z-score) [30]: 3.13
- glycan array binding signal (z-score) [31]: -0.215
- glycan array binding signal (z-score) [32]: -0.189
- glycan array binding signal (z-score) [33]: -0.201
- glycan array binding signal (z-score) [34]: -0.237
- glycan array binding signal (z-score) [35]: -0.186
- glycan array binding signal (z-score) [36]: -0.182
- glycan array binding signal (z-score) [37]: -0.118
